{
  "source": "PubChem BioAssay AID485294",
  "about": "(National Center for Advancing Translational Sciences (NCATS), 2010)",
  "note": "Screen size: about 370,000 compounds; about 150 (0.041%) were called active. This list was built around the results that the source calls inconclusive (neither active nor inactive); the mix of calls is not that of the screen. Calls come from the whole dose curve; as a rule, active = well fitted inhibition curve with a large enough effect; inconclusive = small, poorly fitted or top-dose-only effect; inactive = flat fitted curve, though single readings scatter. Potencies of inconclusive entries are left out as doubtful fits. Potency is the fitted concentration of half-maximal effect; tags give direction and shape of the fitted curve.",
  "data": [
    {"molecular_target": "Beta-lactamase (Escherichia coli (strain K12)) (UniProt P00811)", "sequence (P00811 whole entry, looked up)": "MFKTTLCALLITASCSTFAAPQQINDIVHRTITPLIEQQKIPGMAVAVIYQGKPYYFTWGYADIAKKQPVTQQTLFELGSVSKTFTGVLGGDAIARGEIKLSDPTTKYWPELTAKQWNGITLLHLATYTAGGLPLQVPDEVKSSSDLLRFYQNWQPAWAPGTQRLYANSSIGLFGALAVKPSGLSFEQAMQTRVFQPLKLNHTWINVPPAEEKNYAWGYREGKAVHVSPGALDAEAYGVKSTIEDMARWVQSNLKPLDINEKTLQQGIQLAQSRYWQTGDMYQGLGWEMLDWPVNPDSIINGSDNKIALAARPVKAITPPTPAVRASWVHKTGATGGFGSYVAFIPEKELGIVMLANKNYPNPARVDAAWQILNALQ", "assay": "qHTS Inhibitors of AmpC Beta-Lactamase (assay with detergent); note: nearly all actives have a fitted effect of over 25% in size", "settings": "AmpC hydrolysis of nitrocefin, absorbance 480 nm, 0.01% Triton; series mostly up to 114 µM", "in_short": "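20 mM phosphate pH 7.0 + 0.01% (detergent screen) or 0.0001% Triton X-100; 5.3 nM AmpC reagent; cpd preinc 15 min RT; nitrocefin (800 uM stock) to start; A480 q20 s × 4 min; Activity was normalised to no-enzyme and no-compound control wells.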", "values": [
      {"smiles": "O=C(O)C1CCCC[C@H]1C(=O)Nc1ncc([N+](=O)[O-])s1", "note": "(stereo partly specified)", "Potency": "inconclusive [inhibitor, full curve, poor fit]"},
      {"smiles": "Cc1ccc(CN2CC(C(=O)N3CCN(S(=O)(=O)c4ccc(C)cc4C)CC3)CC2=O)cc1", "note": "(stereo unspecified)", "Potency": "inconclusive [inhibitor, full curve, poor fit]"},
      {"smiles": "Cc1ccc([N+](=O)[O-])c(Oc2ncnc3c2oc2ccccc23)c1", "Potency": "inactive"},
      {"smiles": "COc1cc(NC(N)=S)c(OC)cc1Cl", "Potency": "inconclusive [inhibitor, partial curve, poor fit]"},
      {"smiles": "CCc1ccc(NC(=O)CSc2nnc(-c3cnccn3)n2C)cc1", "Potency": "inactive"},
      {"smiles": "COc1ccc(Nc2nc(CC(C)=O)ns2)cc1OC", "Potency": "inconclusive [inhibitor, full curve, poor fit]"},
      {"smiles": "COc1ccc(Cc2nnc(NC(=O)Nc3ccccc3F)s2)cc1", "Potency": "inconclusive [inhibitor, full curve, poor fit]"},
      {"smiles": "Cc1ccc(P(=O)(CC(=O)O)c2ccc(C)cc2)cc1", "Potency": "inconclusive [inhibitor, full curve]"},
      {"smiles": "CC1CC(C)CN(C(=O)CN2C(=O)NC(c3ccccc3)(c3ccccc3)C2=O)C1", "note": "(stereo unspecified)", "Potency": "inconclusive [inhibitor, full curve, poor fit]"},
      {"smiles": "CC(=O)N1CCN(c2ccc(NC(=O)c3cccc([N+](=O)[O-])c3)cc2)CC1", "Potency": "inconclusive [inhibitor, full curve, poor fit]"},
      {"smiles": "CC(C)C1Cc2[nH]c(=O)c(C(=O)O)cc2CO1", "note": "(stereo unspecified)", "Potency": "inconclusive [inhibitor, partial curve]"},
      {"smiles": "Cc1ccc(C(=O)N2CCN=C2SCc2ccc([N+](=O)[O-])cc2)cc1", "Potency": "inconclusive [inhibitor, full curve, poor fit]"},
      {"smiles": "CCOC(=O)N1CCN(C(=O)Cc2ccc(Cl)cc2)CC1", "Potency": "inconclusive [inhibitor, full curve, poor fit]"},
      {"smiles": "CC1CCCCC1NS(=O)(=O)c1ccc(S(=O)(=O)N2CCN(CCC#N)CC2)cc1", "note": "(stereo unspecified)", "Potency": "inconclusive [inhibitor, partial curve]"},
      {"smiles": "CCC(=O)N1CCN(c2nc3c(C)cccc3s2)CC1", "Potency": "inactive"},
      {"smiles": "CC1CCCN(S(=O)(=O)c2ccc([N+](=O)[O-])cc2)C1", "note": "(stereo unspecified)", "Potency": "inconclusive [inhibitor, full curve, poor fit]"},
      {"smiles": "Cc1ccc(C(=O)c2c3ccc(C(F)(F)F)cc3[n+]([O-])n2CCC(N)=O)cc1", "Potency": "inconclusive [inhibitor, full curve, poor fit]"},
      {"smiles": "CC(=O)N1CCc2cc(S(=O)(=O)N3c4ccccc4CC3C)ccc21", "note": "(stereo unspecified)", "Potency": "inconclusive [inhibitor, single point]"},
      {"smiles": "CC(C)C(=O)NC(c1cccs1)c1cc([N+](=O)[O-])c2cccnc2c1O", "note": "(stereo unspecified)", "Potency": "inconclusive [inhibitor, single point]"},
      {"smiles": "COc1ccc(Cl)cc1S(=O)(=O)n1ccnc1", "Potency": "inconclusive [inhibitor, partial curve, poor fit]"},
      {"smiles": "Cc1cccc(-n2nc([N+](=O)[O-])c(N3CCN(C(=O)c4ccco4)CC3)[n+]2[O-])c1", "Potency": "inconclusive [inhibitor, full curve, poor fit]"},
      {"smiles": "CCCOC(=O)c1ccc(NC(=O)c2ccc(Br)o2)cc1", "Potency": "inconclusive [inhibitor, full curve, poor fit]"},
      {"smiles": "OCC[C@H]1C[C@H](O)[C@@H](O)[C@@]2(CCc3ccccc3O2)O1", "Potency": "inactive"},
      {"smiles": "Fc1ccc(-c2ccc(CNCc3ccccn3)o2)cc1Cl", "Potency": "inconclusive [inhibitor, full curve, poor fit]"},
      {"smiles": "O=C(CSc1ccccc1)NCCCN1CCOCC1", "Potency": "inconclusive [inhibitor, full curve, poor fit]"},
      {"smiles": "COC(=O)CCC(NC(=O)c1cc(C)oc1C)C(=O)OC", "note": "(stereo unspecified)", "Potency": "inactive"},
      {"smiles": "CCOc1ccc(N=C/C=C/c2ccccc2)c(O)c1", "Potency": "inconclusive [inhibitor, full curve]"},
      {"smiles": "CCOC(=O)Nc1cc(C(=O)OCC)c(C)nc1C", "Potency": "inconclusive [inhibitor, full curve, poor fit]"},
      {"smiles": "C[N+](C)(C)c1ccc(/C=N/Nc2nc(Cl)c(C#N)c(Cl)c2Cl)cc1", "Potency": "inconclusive [inhibitor, partial curve]"},
      {"smiles": "CC(C)OC(=O)CSc1ncnc2c1cnn2Cc1ccccc1", "Potency": "inconclusive [inhibitor, full curve, poor fit]"},
      {"smiles": "O=C(NCCc1ccccc1)C1CC(=O)N(C2CCCCCC2)C1", "note": "(stereo unspecified)", "Potency": "inconclusive [inhibitor, full curve, poor fit]"},
      {"smiles": "Fc1ccc(CNC(=S)NC2CCCC2)cc1", "Potency": "inconclusive [inhibitor, single point]"},
      {"smiles": "COc1cccc(C(=O)Nc2ccc(NC(=O)C3C4C=CC(C4)C3C(=O)O)cc2)c1", "note": "(stereo unspecified)", "Potency": "inactive"},
      {"smiles": "CCC1=NN2C(=N)/C(=C\\c3cccn3-c3ccc(Br)cc3)C(=O)N=C2S1", "Potency": "inconclusive [inhibitor, partial curve, poor fit]"},
      {"smiles": "COc1cc(-c2cc(=O)c3ccccc3o2)ccc1O", "Potency": "inconclusive [inhibitor, full curve]"},
      {"smiles": "COc1ccc(NC(=O)CC2C(=O)N(C)C(=S)N2CCc2ccccc2F)cc1", "note": "(stereo unspecified)", "Potency": "inactive"},
      {"smiles": "COC(=O)c1ccc(CNCC(=O)Nc2ccc(C(=O)OC)cc2)cc1", "Potency": "inactive"},
      {"smiles": "O=P(CO)(Cc1ccccc1)Cc1ccccc1", "Potency": "inconclusive [inhibitor, full curve, poor fit]"},
      {"smiles": "COc1ccc(C2/C(=C(\\O)c3ccc4c(c3)OCCO4)C(=O)C(=O)N2CCCN(C)C)cc1", "note": "(stereo unspecified)", "Potency": "inconclusive [inhibitor, partial curve, poor fit]"},
      {"smiles": "Cc1ccc(NC(=O)CN(C)C(=O)c2ccccc2OCc2c(C)noc2C)cc1", "Potency": "inconclusive [inhibitor, full curve, poor fit]"},
      {"smiles": "Cc1ccc2cc(/C=N/Nc3nc4ccccc4[nH]3)c(Cl)nc2c1", "Potency": "inactive"}
    ]}
  ]
}
